Data as given in the supplement of paper PMC11417369.
Some of the results follow.

Test system: PfAP2-HC AP2 domain (GST-tagged)
Assay: gcPBM binding intensity (ln(normalized median fluorescence intensity)); higher = stronger DNA binding
How it was run: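 Binding of GST-tagged P. falciparum DNA-binding domains, expressed in E. coli and used at about 25 μg on average, was carried out for 1 h in 1× PBS containing 1% milk, 0.2 mg/ml BSA, 0.5% salmon testes DNA and 0.03% Triton X-100. The target was an Agilent 4 × 180k array of primer-extended double-stranded 36-bp intergenic genomic probes plus negative controls, read with Alexa488 anti-GST antibody at 488 nm. Binding intensity is the highest Masliner-normalised natural-log median intensity across replicate spots of either probe orientation.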

Sequence	gcPBM binding intensity (ln)
ATATATATATATAATACACACTTATGAAATGTCTAA [CACACA_site5077]	9.84
TTAATACATACATTCACACACACTAATTGTATATTT [CACACA_site9362]	10.3
TTCTTTTTTCGACACACACACACAAGAAGATATATA [CACACA_site7456]	10.5
TAAATTATAAATTGCACACATATTTTTATATTTATA [CACACA_site2976]	9.77
ATATTTTTAGATTCAGAAAAAAGATTCAACTTACTC [CACACA_negctrl_site1357]	9.42
TATTTCATATGAAGAAGTACTATTAATAATTTCCTT [XGTACX_site6587]	9.48
ATATATGCATATATATGTACATATATATATATATAT [XGTACX_site7403]	9.66
AATAAATAAAAAATTACACACATATATATAAATATA [CACACA_site3434]	9.85
AAAAATAAAGGGTGTGCACACAAAAATATATATATA [CACACA_site1727]	11
ATAATATATTTAATCATACACACATTTATGTACCTA [CACACA_site1719]	9.88
TTTTTTTTTAAAACATAATAAAAAATAAAACAACCT [GTGCAC_negctrl_site92]	9.32
CAAAAATAATAGAATACATGCAAAAATAAATGTATA [TGCATGCA_site196]	9.71
TACAATAATGATTGTTGTACATTATTGATATTTAAA [XGTACX_site2940]	9.5
TTTAATTTTTAATCAGTGCAATATTATATAATATAT	9.53
AAAAAAAAACAGAAAACACACAAATTATCTTAGAAT [CACACA_site309]	9.87
AATAATTCATCATATGCACACACAATACCAAAATGT [CACACA_site7945]	10.5
TATATGAAATATTATGCACACAATATATAATATGAT [CACACA_site936]	9.84
ATTAATTCGTTTTGTACACACATAATGAATAATTTA [CACACA_site2235]	9.75
TCATTTTAATTAAAAGTGCAAAAAATAATATAACTA [GTGCAC_site9968]	9.56
ATATATATATATATATGTACATATATATTGTTGATC [XGTACX_site8893]	9.77
ACATATTATTCAAGTGCACACTTTATATTTATGATT [CACACA_site3295]	9.82
ATTTAATTCGTACATACACACGCACATATATATATA [CACACA_site8415]	10.1
GAATTTCGATATATGTGTACGCATTTGTATTATAGG [XGTACX_site6332]	9.68

Sequence	gcPBM binding intensity (ln)
TACATATTGCACAAATAAAAAAGAACAAAAAAAAAA [CACACA_negctrl_site1200]	9.53
ATATATATATATATATGTACATATATTCGATTATTA [XGTACX_site557]	9.65
ATAATATTTCTTACCTTTGGATGTTCTAATTTTTTT [CACACA_negctrl_site1317]	9.73
TACTTTATATTATATATATATATATATATATATATA [CACACA_negctrl_site1765]	9.57
AAAAATAACATATAAACACACATATATATATATATA [CACACA_site3802]	10.1
TATATAAAATAATAATGTACTCATTAAAATTATAGA [XGTACX_site4507]	9.48
AAAGAAAAAAAAAAAAAAAAAAAAAAAATTATACAT [CACACA_negctrl_site7]	9.39
ATGTATCCAATAGGAGTGCATAATTCTATTAACACC	9.66
AAACGAACATATAAATGTACATATATATACATATAT [XGTACX_site8086]	9.79
AATTAAATATTATAAACACACATATATATTATTTTT [CACACA_site865]	9.71
TATGTATTAAATTTTACACACATGATTCTCTATATA [CACACA_site2298]	9.96
ATTGTAAATATAGAAGTGCAAAAGGGTATGAAATGA	9.86
TACAAAAAAAATGTATTTAGGACATATATATGTTTA [XGTACX_negctrl_site455]	9.45
TACATAAAATATATCACACATATAATATATATATAT [CACACA_site5834]	9.68
AAAAAAAAAAAAAAATATAAATATATATATATATAT [GTGCAC_negctrl_site28]	9.3
AGTGTAATTTTCCACTGTACTTTTCTTGTATATAAT [XGTACX_site4201]	9.67
AAAGTAACACACTAATATTTTAACAAATAATATATA [GTGCAC_negctrl_site132]	9.85
ATATATATTAATATTTGTACATAAAATTATTTCAAT [XGTACX_site5364]	9.46
AATACATTTATGAGCTGTACACATTTATTTGAGCTA [XGTACX_site7695]	9.59
TTATATCATTTTCCTGCACACATAAATTTATATAAT [CACACA_site8257]	9.94
ACAAAATATACAAAATGTACAAAATATACAAAATGT [XGTACX_site6467]	9.76
CATATGTATTTATTCACACATATATATATATATATA [CACACA_site4207]	9.68
